From the supplement of paper PMC3334620
Over roughly 33,000 sequences, “E-score (-0.5 to 0.5)” has its median near -0.04; the highest 2% begin near 0.36. The list shows a part of the results.

These sequences were tested against T1, Hmlalpha2 (UniProt P0CY09) (assay: PBM E-score (8-mer binding enrichment) (E-score (-0.5 to 0.5)); higher = stronger / more preferred TF binding; most listed sequences are background and not binding sites). Details: protein concentration: 200 nM; construct: GST-full length.
T1 sequence: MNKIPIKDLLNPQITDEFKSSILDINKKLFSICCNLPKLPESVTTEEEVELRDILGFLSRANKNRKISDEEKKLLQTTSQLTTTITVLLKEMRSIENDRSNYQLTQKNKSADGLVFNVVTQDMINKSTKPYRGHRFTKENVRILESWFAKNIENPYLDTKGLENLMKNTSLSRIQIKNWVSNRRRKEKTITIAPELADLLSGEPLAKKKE
Method in brief: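 Masliner-normalised scans of fluorescent anti-GST signal were the basis for scoring. That signal came from GST-tagged yeast transcription factors applied at about 100-200 nM to double-stranded universal all-10-mer Agilent arrays on fresh or once-stripped slides. Each ungapped eight-base word, pooled with its reverse complement, received an E-score from the Universal PBM Analysis Suite.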

Row | Sequence | PBM E-score
1 | ACGCCCAC | -0.0157
2 | GGACTACC | -0.268
3 | AAGATGTG | 0.0226
4 | GGTTGTGA | 0.0449
5 | TTAGACAA | 0.167
6 | GGCGTCTA | -0.0133
7 | TATCGTGA | -0.102
8 | AAACACCT | 0.0638
9 | AGTTCCAT | 0.0354
10 | AGGTGTAC | 0.175
11 | GAGTACCA | 0.0958
12 | AAGGATGC | 0.0116
13 | CCTGCTAG | -0.14
14 | AGGCATTC | -0.265
15 | ACATCTCG | 0.104
16 | CTGATCGC | -0.0378
17 | AATGAGTG | 0.0154
18 | ATGCGGTC | -0.001
19 | AAGAATCC | -0.0955
20 | CCCGCCCC | -0.292
21 | ATCACTAA | 0.105
22 | CCATGCGA | -0.0215
23 | TAGCTTAA | 0.0077
24 | ACTATGCA | 0.0534
25 | GAAGCGCC | -0.112

Row | Sequence | PBM E-score
26 | TAATATAA | 0.291
27 | GCTGACTA | -0.202
28 | GACGCAAA | -0.109
29 | AGAACCTA | -0.137
30 | ATGTCTCG | -0.118
31 | AAGTTGAA | 0.17
32 | CATTTGCA | 0.0835
33 | CCATACTC | -0.182
34 | AGTTCAAG | 0.17
35 | GCCTATGA | -0.147
36 | ACCATCTA | -0.0692
37 | AATCCCTC | -0.0909
38 | AGCGCGCA | 0.0691
39 | CGAGCTTC | 0.0383
40 | AGCGGCAA | -0.196
41 | AATTGAAC | 0.131
42 | GAGCCCCA | -0.267
43 | CCATACAG | -0.178
44 | ACCCCTGG | -0.31
45 | ACTATAGA | 0.00945
46 | GTCACGCA | -0.0567
47 | CACCACTC | -0.146
48 | CAGCAAGC | -0.251
49 | ACTCACTC | -0.105
50 | ACCACCGG | -0.224

Row | Sequence | PBM E-score
51 | GCCATAAA | -0.175
52 | AATCCAAT | 0.0439
53 | GGTAAACC | -0.0161
54 | GTTATAAC | 0.25
55 | ATAACTCG | 0.109
56 | CCCAAGAA | -0.112
57 | TAAGGCGA | -0.142
58 | ACCTTACT | 0.118
59 | GATGGATA | -0.263
60 | AATGCGAA | 0.0749
61 | AACAGAGT | 0.172
62 | GTACGTAA | 0.34
63 | AAACAATA | 0.317
64 | GTCTCGAA | -0.0417
65 | AGTCTCTC | -0.306
66 | CAGCAAAG | -0.173
67 | TATCTTGA | 0.0127
68 | ATTGGCAG | -0.167
69 | ACGCTGCC | -0.108
70 | GACTAGAC | -0.00798
71 | CAAACACG | 0.314
72 | GCCGTTCC | -0.188
73 | TGCGCTAA | 0.0656
74 | GAAACCAC | -0.102
75 | GTTACGAA | 0.222

Row | Sequence | PBM E-score
76 | ACGTGCAA | 0.123
77 | CAGCCCGC | -0.289
78 | GGCTCCTA | -0.211
79 | TACAAGGA | 0.291
80 | AAATTCTT | 0.0442
81 | CTTCACCC | -0.0454
82 | ACCTCCCG | -0.181
83 | TATCTGCA | 0.0142
84 | CGATGGCG | -0.15
85 | CAGGGGAC | -0.183
86 | AATCCGGT | -0.0356
87 | CAAGAGCC | -0.141
88 | CTTGAACA | 0.213
89 | AACGTCGC | 0.063
90 | AAGCCGGA | 0.097
91 | GCTAATCC | -0.048
92 | CACTGGGC | -0.126
93 | GGTGCATA | -0.156
94 | CTGTAAGC | -0.0257
95 | CTGTGGAA | -0.114
96 | CAAGATCG | 0.063
97 | GCGGACCA | -0.0719
98 | TTGAGAAA | 0.125
99 | ATGTAATA | 0.48
100 | CTTTCACC | -0.118

Row | Sequence | PBM E-score
101 | TAATGCGA | 0.232
102 | AGTACACC | 0.115
103 | CGCAGCTA | -0.0436
104 | ATATACCG | 0.107
105 | CTGCCAGA | -0.232
106 | ACTCCACT | -0.192
107 | ACAGCTTG | 0.192
108 | ACCGTCCG | -0.401
109 | GACACTCA | -0.059
110 | AATTTTCA | 0.0373
111 | CCACTCTA | -0.0812
112 | AAATATTT | 0.0866
113 | CTGCTGGC | -0.294
114 | CACACGCA | 0.19
115 | CACACCGG | -0.0415
116 | GGTCCTGA | -0.315
117 | CAGTGGTC | -0.216
118 | CCGGTGCG | -0.115
119 | GGTAACAC | 0.273
120 | CCTGGTAG | -0.298
121 | CAGTCACG | -0.0541
122 | CCTTATAC | 0.0447
123 | CCCGAACC | -0.267
124 | CAAACCAG | -0.0168
125 | CCTAAGCC | -0.252

Row | Sequence | PBM E-score
126 | CGTGTATA | 0.452
127 | ATAGCGCA | -0.0333
128 | AGTGAATG | 0.143
129 | AAGCGAAG | -0.0904
130 | ATGTCTTG | 0.0125
131 | ACAATCAT | 0.195
132 | GCGCAAGA | -0.0432
133 | TACGATCA | -0.0609
134 | CCCTGAAC | 0.159
135 | GACTCTTA | -0.158
136 | CTCTGAGA | -0.188
137 | GGCGGAAC | -0.173
138 | AGGCGTCC | -0.171
139 | CCATGGCC | -0.358
140 | CATCCAGC | 0.00515
141 | AACAAAAG | 0.193
142 | GAGCTAGA | -0.134
143 | CCTATTGA | -0.0297
144 | AGACCTAT | 0.00931
145 | AAGGCCAA | -0.243
146 | AACATCAT | 0.202
147 | AAGCCCAT | -0.143
148 | GCTCACCC | -0.233
149 | CTGCCTTC | -0.295
150 | CGCGAAAG | -0.0485

Row | Sequence | PBM E-score
151 | CGGGTCAG | -0.118
152 | GATGAGAC | -0.181
153 | CTTACTAA | 0.149
154 | GACGGAGA | -0.157
155 | ACTAACCC | 0.0236
156 | AGTCATCG | -0.0877
157 | ATTGCCCA | -0.0733
158 | CTGAGAAG | -0.316
159 | TGACGCCA | -0.118
160 | CGCCTATA | -0.138
161 | GAGCCGAC | -0.24
162 | CATATGGA | -0.0107
163 | GCCTTAGA | -0.211
164 | CCTACACC | -0.00672
165 | AAATTAAT | 0.26
166 | TGTACAAA | 0.422
167 | AGCTCTGC | -0.239
168 | AATGTAGA | 0.301
169 | AGCTTGCG | -0.0242
170 | CTGTATAA | 0.209
171 | AGAGTTAG | -0.0912
172 | ATTCATAG | 0.132
173 | GCTTGTAC | 0.243
174 | ACCGAACA | 0.117
175 | CCGGAGCA | -0.239

Row | Sequence | PBM E-score
176 | CAATTGGC | -0.0418
177 | TCCATTAA | 0.148
178 | GCGCCAGA | -0.138
179 | AAAGTGCG | -0.05
180 | TTAGCAAA | 0.135
181 | GTATCCAC | -0.117
182 | GACATAGA | 0.145
183 | CGTATGCC | -0.209
184 | CTCAAAAG | -0.0353
185 | TACCGCCA | 0.0215
186 | AACCTGTC | -0.0259
187 | CTGATGAA | -0.0425
188 | TGTAATAA | 0.45
189 | CGCGTTCC | 0.061
190 | ATTCGACC | -0.291
191 | GAGTGAGA | -0.0922
192 | AGTTGGGA | -0.0684
193 | ATAGCCAT | 0.0224
194 | ACGACACA | 0.248
195 | CTACCAGA | -0.187
196 | ATAGCTCG | 0.0298
197 | CGCAGCCA | -0.223
198 | TCACAAGA | -0.0359
199 | ATGCGTAC | 0.273
200 | GTTTGCGA | 0.191

Row | Sequence | PBM E-score
201 | CGCCGAAC | -0.196
202 | ATAACCGA | -0.105
203 | CAAGGTGA | -0.0711
204 | ATATGTCA | 0.153
205 | GCAGTGCC | -0.137
206 | GGTCACGA | -0.0522
207 | CGGCAGAA | -0.197
208 | TGGAACCA | -0.0352
209 | CAAGTAAG | 0.0378
210 | GCATCTGA | -0.251
211 | CAGCGAGG | -0.256
212 | AAACGATT | -0.0352
213 | CCATTTGC | -0.125
214 | ACGAACCA | 0.219
215 | AGATTCCT | -0.188
216 | GCCTATAC | -0.198
217 | GAGTAGAC | -0.0398
218 | CCAAACAG | -0.0514
219 | CAAAGCTC | -0.162
